T1: PRYSPRY domain of human TRIM21 with N-terminal 6xHis tag (human)
T1 construct: Expressed in E. coli; also called hTRIM21; human TRIM21.PRYSPRY
T1 chain: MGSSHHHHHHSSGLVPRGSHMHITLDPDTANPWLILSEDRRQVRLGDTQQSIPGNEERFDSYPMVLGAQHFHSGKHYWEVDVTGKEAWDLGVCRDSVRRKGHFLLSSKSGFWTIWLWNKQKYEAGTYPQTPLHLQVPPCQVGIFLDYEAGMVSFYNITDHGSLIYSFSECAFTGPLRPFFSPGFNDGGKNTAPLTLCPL

T2: PRYSPRY domain of mouse TRIM21 with N-terminal 6xHis tag (mouse)
T2 construct: Expressed in E. coli; also called mTRIM21; mouse TRIM21.PRYSPRY
T2 chain: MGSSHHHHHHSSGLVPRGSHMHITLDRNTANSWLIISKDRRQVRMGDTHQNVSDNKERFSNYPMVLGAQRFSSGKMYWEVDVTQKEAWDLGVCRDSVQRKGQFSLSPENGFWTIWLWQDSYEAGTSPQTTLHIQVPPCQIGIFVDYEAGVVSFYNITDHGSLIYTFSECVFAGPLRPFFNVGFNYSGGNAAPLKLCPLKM

T3: human TRIM21 PRYSPRY domain with N-terminal 6xHis tag (human)
T3 construct: Expressed from pET28a in E. coli; also called hTRIM21
T3 chain: T1 chain

T4: mouse TRIM21 PRYSPRY domain with N-terminal 6xHis tag (mouse)
T4 construct: Expressed from pET28a in E. coli; also called mTRIM21
T4 chain: T2 chain

B1: MRAH-G1d/MRAL-KT0 Y436T (antibody, human IgG1, kappa)
heavy: QVQLQESGPGLVRPSQTLSLTCTVSGYSITSDHAWSWVRQPPGRGLEWIGYISYSGITTYNPSLKSRVTMLRDTSKNQFSLRLSSVTAADTAVYYCARSLARTTAMDYWGQGSLVTVSS[human IgG1 constant region with Y436T (EU numbers) omitted here]
light: DIQMTQSPSSLSASVGDRVTITCRASQDISSYLNWYQQKPGKAPKLLIYYTSRLHSGVPSRFSGSGSGTDFTFTISSLQPEDIATYYCQQGNTLPYTFGQGTKVEIKRTVAAPSVFIFPPSDEQLKSGTASVVCLLNNFYPREAKVQWKVDNALQSGNSQESVTEQDSKDSTYSLSSTLTLSKADYEKHKVYACEVTHQGLSSPVTKSFNRGEC
notes: copies: 2 + 2
B2: MRAH-G1d/MRAL-KT0 Y436S (antibody, human IgG1, kappa)
heavy: QVQLQESGPGLVRPSQTLSLTCTVSGYSITSDHAWSWVRQPPGRGLEWIGYISYSGITTYNPSLKSRVTMLRDTSKNQFSLRLSSVTAADTAVYYCARSLARTTAMDYWGQGSLVTVSS[human IgG1 constant region with Y436S (EU numbers) omitted here]
light: B1 light
notes: copies: 2 + 2
B3: MRAH-G1d/MRAL-KT0 Y436D (antibody, human IgG1, kappa)
heavy: QVQLQESGPGLVRPSQTLSLTCTVSGYSITSDHAWSWVRQPPGRGLEWIGYISYSGITTYNPSLKSRVTMLRDTSKNQFSLRLSSVTAADTAVYYCARSLARTTAMDYWGQGSLVTVSS[human IgG1 constant region with Y436D (EU numbers) omitted here]
light: B1 light
notes: copies: 2 + 2
B4: MRAH-G1d/MRAL-KT0 Y436V (antibody, human IgG1, kappa)
heavy: QVQLQESGPGLVRPSQTLSLTCTVSGYSITSDHAWSWVRQPPGRGLEWIGYISYSGITTYNPSLKSRVTMLRDTSKNQFSLRLSSVTAADTAVYYCARSLARTTAMDYWGQGSLVTVSS[human IgG1 constant region with Y436V (EU numbers) omitted here]
light: B1 light
notes: copies: 2 + 2
B5: MRAH-G1d/MRAL-KT0 K439Y (antibody, human IgG1, kappa)
heavy: QVQLQESGPGLVRPSQTLSLTCTVSGYSITSDHAWSWVRQPPGRGLEWIGYISYSGITTYNPSLKSRVTMLRDTSKNQFSLRLSSVTAADTAVYYCARSLARTTAMDYWGQGSLVTVSS[human IgG1 constant region with K439Y (EU numbers) omitted here]
light: B1 light
B6: MRAH-G1d/MRAL-KT0 K439I (antibody, human IgG1, kappa)
heavy: QVQLQESGPGLVRPSQTLSLTCTVSGYSITSDHAWSWVRQPPGRGLEWIGYISYSGITTYNPSLKSRVTMLRDTSKNQFSLRLSSVTAADTAVYYCARSLARTTAMDYWGQGSLVTVSS[human IgG1 constant region with K439I (EU numbers) omitted here]
light: B1 light
B7: MRAH-G1d/MRAL-KT0 K439L (antibody, human IgG1, kappa)
heavy: QVQLQESGPGLVRPSQTLSLTCTVSGYSITSDHAWSWVRQPPGRGLEWIGYISYSGITTYNPSLKSRVTMLRDTSKNQFSLRLSSVTAADTAVYYCARSLARTTAMDYWGQGSLVTVSS[human IgG1 constant region with K439L (EU numbers) omitted here]
light: B1 light
B8: MRAH-G1d/MRAL-KT0 K439F (antibody, human IgG1, kappa)
heavy: QVQLQESGPGLVRPSQTLSLTCTVSGYSITSDHAWSWVRQPPGRGLEWIGYISYSGITTYNPSLKSRVTMLRDTSKNQFSLRLSSVTAADTAVYYCARSLARTTAMDYWGQGSLVTVSS[human IgG1 constant region with K439F (EU numbers) omitted here]
light: B1 light
B9: MRAH-G1d/MRAL-KT0 K439M (antibody, human IgG1, kappa)
heavy: QVQLQESGPGLVRPSQTLSLTCTVSGYSITSDHAWSWVRQPPGRGLEWIGYISYSGITTYNPSLKSRVTMLRDTSKNQFSLRLSSVTAADTAVYYCARSLARTTAMDYWGQGSLVTVSS[human IgG1 constant region with K439M (EU numbers) omitted here]
light: B1 light
B10: MRAH-G1d/MRAL-KT0 K439V (antibody, human IgG1, kappa)
heavy: QVQLQESGPGLVRPSQTLSLTCTVSGYSITSDHAWSWVRQPPGRGLEWIGYISYSGITTYNPSLKSRVTMLRDTSKNQFSLRLSSVTAADTAVYYCARSLARTTAMDYWGQGSLVTVSS[human IgG1 constant region with K439V (EU numbers) omitted here]
light: B1 light
B11: MRAH-G1d/MRAL-KT0 Q438D (antibody, human IgG1, kappa)
heavy: QVQLQESGPGLVRPSQTLSLTCTVSGYSITSDHAWSWVRQPPGRGLEWIGYISYSGITTYNPSLKSRVTMLRDTSKNQFSLRLSSVTAADTAVYYCARSLARTTAMDYWGQGSLVTVSS[human IgG1 constant region with Q438D (EU numbers) omitted here]
light: B1 light
B12: MRAH-G1d/MRAL-KT0 Q438A (antibody, human IgG1, kappa)
heavy: QVQLQESGPGLVRPSQTLSLTCTVSGYSITSDHAWSWVRQPPGRGLEWIGYISYSGITTYNPSLKSRVTMLRDTSKNQFSLRLSSVTAADTAVYYCARSLARTTAMDYWGQGSLVTVSS[human IgG1 constant region with Q438A (EU numbers) omitted here]
light: B1 light
B13: MRAH-G1d/MRAL-KT0 T437P (antibody, human IgG1, kappa)
heavy: QVQLQESGPGLVRPSQTLSLTCTVSGYSITSDHAWSWVRQPPGRGLEWIGYISYSGITTYNPSLKSRVTMLRDTSKNQFSLRLSSVTAADTAVYYCARSLARTTAMDYWGQGSLVTVSS[human IgG1 constant region with T437P (EU numbers) omitted here]
light: B1 light

Molecular target: T1, PRYSPRY domain of human TRIM21 with …
Test: SPR, Protein L capture

| hTRIM21 binding level ratio (variant/control antibody) | Binder |
| --- | --- |
| 1.08 | B1 |
| 0.2 | B2 |
| 0.178 | B3 |
| 0.122 | B4 |

Molecular target: T2, PRYSPRY domain of mouse TRIM21 with …
Test: SPR, Protein L capture

| mTRIM21 binding level ratio (variant/control antibody) | Binder |
| --- | --- |
| 1.99 | B1 |
| 1.2 | B2 |
| 1.44 | B3 |
| 0.483 | B4 |

Each binder was assayed against T5, human FcRn (human, UniProt P55899 partial chain; P61769 partial chain, limits assumed) (assay: SPR, Protein L capture).
T5 construct: also called hFcRn

| hFcRn binding level ratio (variant/control antibody) | Binder |
| --- | --- |
| 0.94 | B1 |
| 0.58 | B2 |
| 0.24 | B3 |
| 0.79 | B4 |

Molecular target: T3, human TRIM21 PRYSPRY domain with …
Test: SPR, Ab captured on Protein L, 100 nM hTRIM21

| hTRIM21 binding level ratio (variant/control antibody) | Binder |
| --- | --- |
| 0.984 | B5 |
| 0.964 | B6 |
| 1.04 | B7 |
| 0.932 | B8 |
| 1.09 | B9 |
| 1.1 | B10 |
| 0.845 | B11 |
| 0.886 | B12 |

Molecular target: T4, mouse TRIM21 PRYSPRY domain with …
Test: SPR, Ab captured on Protein L, 100 nM mTRIM21

| mTRIM21 binding level ratio (variant/control antibody) | Binder |
| --- | --- |
| 2 | B5 |
| -0.129 | B13 |
| 2.04 | B6 |
| 2.1 | B7 |
| 1.89 | B8 |
| 2.2 | B9 |
| 2.18 | B10 |
| 2.6 | B11 |
| 1.97 | B12 |

What follows are binders tested against T6, human FcRn (human, UniProt P55899 partial chain; P61769 partial chain, limits assumed) (assay: SPR pH 6.0, Ab captured on Protein L, 1 uM hFcRn).
T6 construct: also called hFcRn

| hFcRn binding level ratio (variant/control antibody) | Binder |
| --- | --- |
| 0.59 | B5 |
| 0.03 | B13 |
| 0.93 | B6 |
| 0.93 | B7 |
| 0.79 | B8 |
| 0.92 | B9 |
| 0.08 | B10 |
| 0.77 | B11 |
| 0.92 | B12 |

Reference: patent publication US20210238308A1 (Chugai, published 2021)
